Measurements taken from ChEMBL document CHEMBL1201862, “PubChem BioAssay data set” (2004).
Counter-ions that a name gives are not always drawn. Calls of active or inactive are those of the source.

How the values were obtained:
Streptokinase A = target: T1, Streptokinase A (Streptococcus pyogenes serotype M1, UniProt P10520); test: viability-normalized secreted streptokinase activity reduction – plasminogen activation absorbance, OD405, dose response (AID 1914); type: functional, Streptococcus pyogenes M1 GAS;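 note: secreted streptokinase activity via plasminogen activation per viability signal from cell pellet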
T1 sequence (P10520 whole entry): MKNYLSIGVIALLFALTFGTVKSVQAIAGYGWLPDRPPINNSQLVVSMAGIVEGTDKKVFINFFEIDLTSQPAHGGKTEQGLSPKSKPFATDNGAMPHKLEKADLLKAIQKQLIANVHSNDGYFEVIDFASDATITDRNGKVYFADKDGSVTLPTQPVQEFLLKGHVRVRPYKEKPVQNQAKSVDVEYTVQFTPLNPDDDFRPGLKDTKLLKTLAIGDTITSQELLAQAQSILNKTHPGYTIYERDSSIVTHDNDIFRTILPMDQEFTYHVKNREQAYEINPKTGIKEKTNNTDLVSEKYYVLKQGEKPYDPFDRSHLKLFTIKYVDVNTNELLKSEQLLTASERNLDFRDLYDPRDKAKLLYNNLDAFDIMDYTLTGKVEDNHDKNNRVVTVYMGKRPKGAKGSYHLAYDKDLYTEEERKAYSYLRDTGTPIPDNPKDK

[1] = tested on: Streptococcus sp. 'group A'; test: Streptococcus pyogenes SK(-)GAS viability under kanamycin – luminescence, BacTiterGlo, confirmation, counter-screen for streptokinase expression inhibitor project, dose response (AID 1900); type: functional, organism-based
CAAX prenyl protease 2 [2] = target: T2, CAAX prenyl protease 2 (Saccharomyces cerevisiae S288c, UniProt Q03530); type: biochemical
T2 sequence (Q03530 whole entry): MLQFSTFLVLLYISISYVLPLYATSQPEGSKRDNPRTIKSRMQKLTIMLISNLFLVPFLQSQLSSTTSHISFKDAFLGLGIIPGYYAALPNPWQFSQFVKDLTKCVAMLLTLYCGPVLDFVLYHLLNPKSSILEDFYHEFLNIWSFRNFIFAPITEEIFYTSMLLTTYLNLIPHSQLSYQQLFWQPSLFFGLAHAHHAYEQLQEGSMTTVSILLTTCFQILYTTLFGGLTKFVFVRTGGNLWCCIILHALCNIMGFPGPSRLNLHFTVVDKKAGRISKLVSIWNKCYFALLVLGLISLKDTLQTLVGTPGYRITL

CAAX prenyl protease 2 [3] = target: T3, CAAX prenyl protease 2 (Homo sapiens, UniProt Q9Y256); test: inhibition of Ras-converting CAAX protease Rce1 – biochemical, yeast membranes, quenched-peptide fluorescence, cherry-pick, dose response (AID 588849)
T3 sequence (Q9Y256 whole entry): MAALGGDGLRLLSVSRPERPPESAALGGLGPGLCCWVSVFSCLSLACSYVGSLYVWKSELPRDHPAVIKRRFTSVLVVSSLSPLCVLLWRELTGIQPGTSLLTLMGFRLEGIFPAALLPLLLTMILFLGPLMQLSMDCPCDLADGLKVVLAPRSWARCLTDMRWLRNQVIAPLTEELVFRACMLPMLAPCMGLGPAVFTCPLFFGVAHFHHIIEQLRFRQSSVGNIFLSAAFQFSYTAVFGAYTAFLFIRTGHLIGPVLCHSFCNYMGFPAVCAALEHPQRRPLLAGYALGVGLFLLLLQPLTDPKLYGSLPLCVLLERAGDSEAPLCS

Fc1ccc(C(c2ccc(F)cc2)N2CCN(C/C=C/c3ccccc3)CC2)cc1 [FLUNARIZINE DIHYDROCHLORIDE]
active: EC50 (Streptokinase A) 9.95 µM | EC50 [1] 8.7 µM | AC50 (CAAX prenyl protease 2 [2]) 3.5 µM | AC50 (CAAX prenyl protease 2 [3]) 70.9 µM
